Assay [1] deals with cynomolgus CD3 (on cynomolgus T cells from PBMCs, "mkT cells") (cynomolgus, UniProt Q95LI5 22-198; Q95LI8 22-171; Q95LI7 23-181). The experiment in a line: FACS, serially diluted antibody on cynomolgus T cells (CD2+CD4+ gate of PBMCs). The protocol: (§1) FACS data was acquired using the following protocol: Cells at 2×10⁵ per well were incubated with serially diluted antibodies for 30 min on ice. Post incubation, cells were washed and appropriate secondary (Jurkat, RAJI cells) or cocktail of secondary antibodies (for cyno PBMC) was added and incubated for an additional 30 minutes. After incubation, cells were washed, re-suspended in cold PBS containing 1% BSA and analyzed by flow cytometry on a BD FACS Canto II. Jurkat and Raji cells were gated by side and forward scatters, while cynomolgus T cells were also gated in a CD2+CD4+ population. The EC₅₀s for cell binding titration were determined using Prism software with values calculated using a 4-parameter non-linear regression analysis.

For assay [2], the target named is T1, human CD20 (on Raji cells, CD3-, CD20+ human B-cell line; on B16F10.9/CD20 cells) (human, UniProt P11836 1-297).
T1 sequence (looked up): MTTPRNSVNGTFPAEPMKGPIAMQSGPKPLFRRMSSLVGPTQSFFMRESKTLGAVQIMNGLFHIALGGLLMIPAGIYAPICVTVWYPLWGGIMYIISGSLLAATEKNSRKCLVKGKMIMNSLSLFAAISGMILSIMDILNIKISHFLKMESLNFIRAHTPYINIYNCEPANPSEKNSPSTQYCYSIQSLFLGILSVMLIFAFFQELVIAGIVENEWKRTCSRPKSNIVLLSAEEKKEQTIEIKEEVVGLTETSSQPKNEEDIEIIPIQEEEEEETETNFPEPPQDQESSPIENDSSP
The experiment in a line: cell-based or functional assay.

Assay [3] addresses T2, human CD3 (on Jurkat cells, CD3+, CD20- human T-cell line; on human T cells) (human, UniProt P07766; P04234; P09693; P20963).
T2 construct: whole, on cells; SP34 is said to react with the epsilon chain
The experiment in a line: FACS, serially diluted antibody on Jurkat cells (CD3+, CD20-). The protocol: as §1

In assay [4] the target is T1, human CD20 (on Raji cells, CD3-, CD20+ …). The experiment in a line: cell-based or functional assay. This is another data set of the same source.
For assay [5] the target is unchanged. The experiment in a line: cell-based or functional assay. This is another data set of the same source.
The target is the same in assay [6]. The experiment in a line: FACS, serially diluted antibody on Raji cells (CD3-, CD20+). The protocol: as §1

UniProt Q95LI5, sequence (Q95LI5 22-198, chain 1 of 3): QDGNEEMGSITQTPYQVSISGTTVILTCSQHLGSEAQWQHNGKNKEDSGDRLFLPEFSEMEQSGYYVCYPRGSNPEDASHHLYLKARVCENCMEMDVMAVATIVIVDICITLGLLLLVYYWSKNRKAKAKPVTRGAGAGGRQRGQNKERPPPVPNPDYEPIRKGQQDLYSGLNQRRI
UniProt Q95LI5, sequence (Q95LI8 22-171, chain 2 of 3, further chain): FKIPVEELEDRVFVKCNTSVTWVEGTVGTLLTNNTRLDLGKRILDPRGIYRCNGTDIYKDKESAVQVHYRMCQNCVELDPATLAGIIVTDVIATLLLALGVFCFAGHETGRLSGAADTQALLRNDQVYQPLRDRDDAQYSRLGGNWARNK
UniProt Q95LI5, sequence (Q95LI7 23-181, chain 3 of 3, further chain): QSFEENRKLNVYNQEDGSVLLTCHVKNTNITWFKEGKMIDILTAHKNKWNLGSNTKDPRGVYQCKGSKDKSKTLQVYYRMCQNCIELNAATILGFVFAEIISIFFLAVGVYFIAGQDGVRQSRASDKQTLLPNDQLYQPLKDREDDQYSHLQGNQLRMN
UniProt P07766, sequence (P07766 23-207, chain 1 of 4): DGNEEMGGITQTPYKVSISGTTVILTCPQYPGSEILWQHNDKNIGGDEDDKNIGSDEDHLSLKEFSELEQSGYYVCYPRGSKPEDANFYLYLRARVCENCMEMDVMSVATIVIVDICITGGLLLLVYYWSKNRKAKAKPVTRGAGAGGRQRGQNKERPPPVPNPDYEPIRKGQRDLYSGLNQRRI
UniProt P07766, sequence (P04234 22-171, chain 2 of 4, further chain): as the sequence (Q95LI8 22-171, chain 2 of 3, further chain) above, with V5I, K15N, V20I, T32S, N33D, N34I, A64T, N74S, L83V, R141H counted along it
UniProt P07766, sequence (P09693 23-182, chain 3 of 4, further chain): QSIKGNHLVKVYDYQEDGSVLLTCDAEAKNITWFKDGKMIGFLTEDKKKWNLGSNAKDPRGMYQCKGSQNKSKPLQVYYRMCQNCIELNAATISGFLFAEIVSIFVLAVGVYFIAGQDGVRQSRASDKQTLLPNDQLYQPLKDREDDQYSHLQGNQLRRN
UniProt P07766, sequence (P20963 22-164, chain 4 of 4, further chain): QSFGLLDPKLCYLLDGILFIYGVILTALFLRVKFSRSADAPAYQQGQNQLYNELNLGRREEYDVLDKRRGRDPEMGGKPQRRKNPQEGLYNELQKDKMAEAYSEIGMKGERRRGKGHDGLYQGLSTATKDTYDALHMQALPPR

B1: (Control) Antibody 4: CD3×CD20 antibody-wild-type Fc (wtFc) (bispecific antibody)
heavy 1: EVQLVESGGGLVQPGRSLRLSCVASGFTFNDYAMHWVRQAPGKGLEWVSVISWNSDSIGYADSVKGRFTISRDNAKNSLYLQMHSLRAEDTALYYCAKDNHYGSGSYYYYQYGMDVWGQGTTVTVSS[human IgG1 constant region not written out]
heavy 2: EVQLVESGGGLVQPGRSLRLSCAASGFTFDDYTMHWVRQAPGKGLEWVSGISWNSGSIGYADSVKGRFTISRDNAKKSLYLQMNSLRAEDTALYYCAKDNSGYGHYYYGMDVWGQGTTVTVAS[human IgG1 constant region with changes not written out]
light: EIVMTQSPATLSVSPGERATLSCRASQSVSSNLAWYQQKPGQAPRLLIYGASTRATGIPARFSGSGSGTEFTLTISSLQSEDFAVYYCQHYINWPLTFGGGTKVEIKRTVAAPSVFIFPPSDEQLKSGTASVVCLLNNFYPREAKVQWKVDNALQSGNSQESVTEQDSKDSTYSLSSTLTLSKADYEKHKVYACEVTHQGLSSPVTKSFNRGEC
notes: Same variable regions as Antibody 1 and Antibody 2, wild-type IgG1 CH; also called Control 4 (Anti-CD3 × CD20, wild-type CH); Control Ab 4
Usually EC50 stands for the midpoint of the concentration-response curve. Regarding B1, in assay [1], the EC50 was found to be 8740 nM. For the same molecule, in assay [2], the “Raji Cytotoxicity Human T-cells [M] (EC50, calcein release)” value was 5.63e-11 M and the “Raji Cytotoxicity Monkey T-cells [M] (EC50, calcein release)” value was 1.27e-12 M. Also, the midpoint of the response in assay [3], the EC50, lay at 38.5 nM. In addition, the “% Survival B16F10.9/CD20 cells [M] (EC50, FACS, naive human PBMC effectors, 48 h)” value in assay [4] was determined as 1.28e-11 M. For the same molecule, in assay [5], the “Raji Cytotoxicity Activated Human T-cells [M] (EC50, calcein release)” value is 1.57e-11 M and the “Raji Cytotoxicity Activated Monkey T-cells [M] (EC50, calcein release)” value is 1.73e-12 M. In assay [6], this molecule displayed an EC50 of 59.9 nM.
